Test results taken from article PMC4336329 (PLoS ONE, 2015).
Among all 310,000 compounds or so, about 2,200 (0.71%) showed an effect of 50% or more. Effects have a minus sign here. This is one part of the list.

Target: human ether-à-go-go-related gene (hERG) potassium channel (human, UniProt Q12809)
Assay: primary screen, population patch clamp on CHO cells stably expressing hERG

human ether-à-go-go-related gene (hERG) potassium channel, sequence (Q12809 whole entry, looked up): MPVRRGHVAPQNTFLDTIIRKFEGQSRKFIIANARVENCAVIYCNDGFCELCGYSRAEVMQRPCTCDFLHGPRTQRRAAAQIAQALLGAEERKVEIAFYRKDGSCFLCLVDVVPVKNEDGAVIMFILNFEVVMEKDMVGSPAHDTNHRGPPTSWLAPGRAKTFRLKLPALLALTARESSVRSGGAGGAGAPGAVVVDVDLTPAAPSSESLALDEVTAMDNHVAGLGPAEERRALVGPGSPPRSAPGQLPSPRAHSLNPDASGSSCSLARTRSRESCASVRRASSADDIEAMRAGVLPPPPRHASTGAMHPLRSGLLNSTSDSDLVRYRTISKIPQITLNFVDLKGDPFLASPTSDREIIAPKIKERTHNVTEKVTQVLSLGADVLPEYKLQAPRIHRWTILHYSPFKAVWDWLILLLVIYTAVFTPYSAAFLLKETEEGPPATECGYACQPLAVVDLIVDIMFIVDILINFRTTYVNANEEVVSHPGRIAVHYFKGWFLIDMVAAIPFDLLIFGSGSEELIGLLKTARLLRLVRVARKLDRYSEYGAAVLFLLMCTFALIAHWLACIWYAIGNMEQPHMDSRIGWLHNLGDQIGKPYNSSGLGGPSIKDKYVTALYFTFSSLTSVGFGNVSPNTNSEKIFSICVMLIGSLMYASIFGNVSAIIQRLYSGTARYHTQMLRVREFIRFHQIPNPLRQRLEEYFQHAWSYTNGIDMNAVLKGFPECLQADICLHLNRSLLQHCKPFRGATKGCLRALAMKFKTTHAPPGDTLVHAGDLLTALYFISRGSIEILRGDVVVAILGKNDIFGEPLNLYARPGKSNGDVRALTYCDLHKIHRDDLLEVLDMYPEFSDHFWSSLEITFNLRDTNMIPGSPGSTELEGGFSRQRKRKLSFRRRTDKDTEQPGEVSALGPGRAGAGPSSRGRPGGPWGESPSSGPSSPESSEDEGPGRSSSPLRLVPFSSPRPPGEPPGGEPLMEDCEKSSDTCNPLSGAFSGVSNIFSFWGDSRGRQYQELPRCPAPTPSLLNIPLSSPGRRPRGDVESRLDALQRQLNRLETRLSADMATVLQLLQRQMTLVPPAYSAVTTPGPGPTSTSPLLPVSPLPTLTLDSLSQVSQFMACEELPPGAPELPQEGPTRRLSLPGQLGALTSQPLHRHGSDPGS

SMILES	hERG current change (%, negative = inhibition) at 1uM
CCc1cc(=O)oc2c3c(cc(OCC(=O)NCc4ccccn4)c12)OC(C)(C)CC3	9.67%
Cc1cccc(C(=O)NCC(=O)NCCCSc2ccccc2)c1	11.6%
COc1cccc(-c2nc(CCl)cs2)c1OC.Cl	9.59%
Cc1ccc2nsnc2c1NC(=O)c1ccc([N+](=O)[O-])o1	14.6%
COC(=O)c1cc(C)sc1NC(=S)N1CCN(CCc2ccccc2)CC1	2.27%
CCCc1nc(SCC(=O)Nc2nnc(CC)s2)c2c(C)c(C)sc2n1	23.7%
COc1cc(OC)cc(-n2nc(C(=O)NCCCN3CCOCC3)c3ccccc3c2=O)c1	2.78%
O=C1c2ccc(-c3nc4ccccc4o3)cc2C(=O)N1Cc1cccnc1	12.9%
C=CCN(CC(=O)c1sc(C(=O)OCC)nc1C)c1cccc(Br)c1	13%
O=C(O)C(Cc1cc2ccccc2[nH]1)N1C(=O)C2CC=C(Cl)CC2C1=O (centres unmarked)	-0.378%
CCOc1cc(C2CC(=O)c3c(ccc4ccccc34)N2)ccc1O (centres unmarked)	4.04%
Cc1ccc(NC(=O)C2C3C=CC4(O3)C2C(=O)N(CCN2CCOCC2)C4C(=O)NC2CCCCC2)cc1C (centres unmarked)	12.7%
COc1cc(/C=N/n2nnnc2N)ccc1OCc1c(C)no[n+]1[O-]	11.4%
O=C(O)C(=O)O.O=C(c1ccco1)N1CCN(S(=O)(=O)c2ccc([N+](=O)[O-])cc2)CC1	1.29%
Cc1occc1C(=O)n1cnc2ccccc21	13%
CCS(=O)(=O)c1nc(S(=O)(=O)c2ccc(Cl)cc2)c(N2CCN(CCO)CC2)s1	7.45%
Cn1nnnc1SCC(=O)Nc1cc(S(=O)(=O)N2CCCC2)ccc1Cl	8.9%
O=S(=O)(c1cccc(-c2cn3ccccc3n2)c1)N1CCCCC1	14.3%
COC(C(=O)NC1CCCCCCC1)c1ccccc1 (centres unmarked)	2.42%
CC(C)Oc1ccc(/C=C(\C#N)C(=O)NC2CC2)cc1	16.9%
O=C(CSc1nc(=O)n(CCCN2CCOCC2)c2c1CCCC2)Nc1cccc(F)c1	-10.9%
CCCS(=O)(=O)N1CCCC(C(=O)NC2CCCC(C)C2C)C1 (centres unmarked)	10.7%
CCOc1ccc(S(=O)(=O)Nc2cccc(C(=O)NCC(c3ccco3)N3CCCC3)c2)cc1 (centres unmarked)	4.47%

SMILES	hERG current change (%, negative = inhibition) at 1uM
Cc1cccc(SCc2noc(C(=O)NC(C)C)c2C(=O)O)c1	14.3%
CCN(CC(O)COCc1ccc(Cl)cc1)C1CCCCC1.Cl (centres unmarked)	-3.91%
COc1ccccc1C1=NN(C2=NN=C(N)Cc3ncnn32)C(O)(C(F)(F)F)C1 (centres unmarked)	12.7%
O=C(Nc1cccc(Cl)c1)Nc1c[nH]c(=O)[nH]c1=O	15.3%
O=C(O)c1nccnc1C(=O)Nc1ccc(Oc2c(Cl)cccc2Cl)nc1	-5.67%
Nn1c(SCC(=O)N2CCOCC2)nnc1-c1ccccc1Cl	4.84%
O=C(Nc1cc([N+](=O)[O-])ccc1O)c1ccc2c(c1)C(=O)N(Cc1ccco1)C2=O	5.61%
Nc1c(C(=O)N/N=C/c2ccc(F)cc2)oc2nc(-c3ccccc3)cc(-c3ccco3)c12	20.7%
Cc1cccc(C)c1OCC(=O)Nc1ccccc1C(=O)N1CCOCC1	12.9%
COc1cccc(NC(=O)CCNS(=O)(=O)c2cccc3nonc23)c1	17.1%
CCc1ccc(OCC(=O)NCC(c2ccc(Cl)cc2)N2CCCCC2)cc1 (centres unmarked)	14.3%
O=c1[nH]n(CC2COC3(CCCCC3)O2)c(=O)c2ccccc12 (centres unmarked)	2.54%
CCc1ccccc1NC(=O)C1CCN(S(C)(=O)=O)CC1	12.3%
c1ccc(Cc2noc(CN3CCC(CN4CCOCC4)CC3)n2)cc1	15.3%
COc1ccc(N2CCN(C(=O)c3cc(=O)c4cc(Cl)ccc4o3)CC2)cc1	-81.5%
O=C(CSc1ccc(Cl)cc1)Nc1ccccc1N1CCN(C(=O)c2ccccc2)CC1	-10.6%
CCOc1ccc(NC(=O)CN(C)C(=O)c2c(C)nn(-c3ccc(F)cc3)c2Cl)cc1OCC	8.08%
CN1CCN(S(=O)(=O)c2ccc(NC(=O)c3ccc(F)cc3)cc2)CC1	0.271%
O=c1cc(CN2CCOCC2)c2ccc(O)c(O)c2o1	11.1%
CN(C)/C=C/C(=O)c1cc(F)cc(C(F)(F)F)c1	15.7%
CCN(CC)S(=O)(=O)c1ccc(N2CC(C(=O)NCc3cccnc3)CC2=O)cc1 (centres unmarked)	10.2%
NC(=S)c1cc2cc(Cl)ccc2oc1=O	13.8%
COc1ccccc1/C=N/NC(=O)C(NC(=O)c1ccccc1)=C(C)C	-4.99%

SMILES	hERG current change (%, negative = inhibition) at 1uM
O=C1CC(NNc2ccccc2)C(=O)N1c1ccccc1 (centres unmarked)	14.6%
CCn1c(SCC(=O)c2ccc(OC)cc2)nnc1C(C)NC(=O)c1ccc(OC)cc1 (centres unmarked)	6.76%
CNS(=O)(=O)c1cnccc1N1CCN(c2cccc(C)c2)CC1	4.64%
Cc1occc1C(=O)Nc1cnn(CCCC(=O)O)c1	12.7%
COc1ccc(OC)c(-n2cnnn2)c1	-1.24%
COc1cccc(C(=O)NC(=S)Nc2ccc(Cl)cc2C(=O)O)c1	13.9%
O=C(Cn1cc(C(F)(F)F)cc(Cl)c1=O)NCCc1ccccc1	7.4%
CC(C)(C)OC(=O)CNC(=O)c1[nH]cnc1C(=O)NCCCCCNC(=O)OC(C)(C)C	-5.09%
Cc1ccc(S(=O)(=O)N2CCCOC2)cc1	7.03%
COc1ccc(CC(=O)NNC(=O)COc2ccc3ccccc3c2)cc1	10.6%
CC(=O)Nc1cc2c(cc1Br)OCCO2	11.3%
Cc1onc(-c2ccccc2)c1-c1csc(COc2ccccc2)n1	15.1%
C=CCNC(=O)CSc1nnc(C(CC)N(C)C)n1C1CCCCC1 (centres unmarked)	8.12%
CCCC(=O)Nc1c(-c2ccccc2)c(=O)c(C)nn1-c1ccc(Cl)cc1	9.07%
O=C(Nc1ccc(N2CCOCC2)cc1)c1ccc([N+](=O)[O-])cc1	20.7%
N#CCC(=O)N/N=C/c1ccc(Sc2nc3ccccc3s2)o1	9.58%
COc1ccc(Cc2nnc(SCc3nc4ccccc4c(=O)[nH]3)n2C)cc1	10.7%
COC(=O)C1=C(c2cccc(OCc3ccccc3)c2)C[C@@H]2CC[C@H]1N2C(=O)NNCc1ccccc1	12.4%
CCOC(=O)Cc1nnc(NC(=O)CCc2ccccc2)s1	12.7%
COc1ccc(-c2nc(N)ncc2Oc2ccccc2Br)c(O)c1	-1.62%
NS(=O)(=O)c1ccc(CCNC(=O)COC(=O)C2CCN(c3ccc(C(F)(F)F)cn3)CC2)cc1	-2.66%
Cn1c(=O)c2c(nc(NCCOc3ccc(C(C)(C)C)cc3)n2C)n(C)c1=O	0.529%
O=C(COc1ccc(Cl)cc1)Nc1ncccn1	-5.21%

SMILES	hERG current change (%, negative = inhibition) at 1uM
CNC(=O)C(=O)NCC1OCCN1S(=O)(=O)c1ccc(OC)c(OC)c1 (centres unmarked)	12.9%
COc1nnc(-c2ccc(N3CCCCC3)c(N)c2)c2ccccc12	5.64%
CC(=O)c1c(O)cc(C(C)C)n(-c2ccccc2)c1=O	4.81%
COc1ccc2c(c1O)-c1ccccc1CCN(C)C2.Cl	5.61%
CC1CCCCC1NC(=O)C1CCN(S(=O)(=O)c2ccc3c(c2)CCC(=O)N3)CC1 (centres unmarked)	10.7%
COc1ccc(-c2cn(Cc3ccc(C(N)=O)cc3)c(CCN)n2)cc1	-17.7%
Cc1nc(N/N=C/c2cccc(F)c2)cc(N2CCOCC2)n1	-8.91%
Cn1c(-c2ccccc2)cnc1SCC(N)=O	18.8%
Cc1csc(Nc2ccccc2C(F)(F)F)n1	13.1%
Cn1nnnc1SCC(=O)N1c2ccccc2Sc2ccc(Cl)cc21	-3.03%
COCCNC(=O)COC(=O)c1cccnc1SC	12.8%
Cc1cc(C)n(C(=O)CCC(=O)NCc2ccccc2)n1	7.58%
CC(=O)c1sc(NC(=O)C2=NN(c3ccccc3)C(=O)CC2)nc1C	10.3%
CCCN(CC(=O)Nc1ccccc1OC)C(=O)c1cnc(Cl)c(Cl)c1	13.7%
CCOC(=O)CSC1=C(C#N)C(c2ccc(Cl)cc2)CC(=O)N1 (centres unmarked)	2.14%
CCC(C)(C)NC(=O)C(c1ccc(O)cc1)N(CCOC)C(=O)CCC(=O)Nc1nccs1 (centres unmarked)	15.2%
COCCN1C(=O)c2cc(C(=O)Nc3cccc(F)c3)ccc2C1Nc1cccc(F)c1 (centres unmarked)	9.68%
Cc1ccc(OCCOC(=O)Nc2ccccc2)cc1	8.88%
C=C(C)C(C)(C#CCN1CCCC1)OC(C)=O (centres unmarked)	-3.09%
CCNc1ccc(C(=O)OCC(=O)N(Cc2ccccc2)C(C)(C)C)cc1[N+](=O)[O-]	7.38%
